Measurements as given in PubChem BioAssay AID686979 (National Center for Advancing Translational Sciences (NCATS), 2013).
In all, about 420,000 compounds went through this assay and about 50,000 (12%) were called active. Inconclusive means that the source gave no clear call. Such entries were picked first, then a sample of the others. Calls come from the whole dose curve; as a rule, active = well fitted inhibition curve with a large enough effect; inconclusive = small, poorly fitted or top-dose-only effect; inactive = flat fitted curve, though single readings scatter. No potency is given beside an inconclusive call; the fits are too rough.

test: qHTS for Inhibitors of human tyrosyl-DNA phosphodiesterase 1 (TDP1): qHTS in cells in presence of CPT; details: chicken DT40 Tdp1-/-;hTDP1 cells + 20 nM CPT, ATP luminescence, 48 h; activity change, negative = growth inhibition: at 46.2 µM (top of the series) unless noted; note: nearly all actives have a fitted effect of over 55% in size
In short: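 Chicken DT40 Tdp1-/- cells complemented with human TDP1, 400 cells/well, exposed to compounds plus 20 nM camptothecin for at least 48 h at 37 C; viability read as ATP content by CellTiter-Glo luminescence.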
% is set by controls: 0 for no effect and ±100 for the full control effect; potency is the fitted concentration of half-maximal effect; tags give direction and shape of the fitted curve.

Structure (SMILES) | Potency | activity change, negative = growth inhibition
CN(C)c1cccc(C(=O)n2cc(C(=O)c3cc(F)ccc3O)cn2)c1 | inactive | –
O=C(Cc1cccc(NC(=O)C2CCCN(C(=O)CCc3ccccc3)C2)c1)Nc1ccc(C(=O)N2CCOCC2)cc1 (stereo not drawn) | inconclusive [inhibitor, single point] | –
CC1=NN(c2ccccc2)C(=O)C1c1ccccc1 (stereo not drawn) | inactive | –
CCCCCn1c(CCNC(=O)CCC)nc2ccccc21 | inconclusive [inhibitor, single point] | –
Cc1ccccc1-c1cncnc1NCc1cccnc1 | inactive | –
Cc1cccc(-n2ncc(C(=O)N3CCN(C(=O)c4ccco4)CC3)c2C2CCN(C(=O)OC(C)(C)C)CC2)c1 | inconclusive [inhibitor, partial curve] | –
N#CC1(NC(=O)Cn2ncc(Cl)c(Cl)c2=O)CCCCC1 | active: 13 µM | –
CCOC(=O)N1CCc2c(sc3c2C(=O)NC(c2ccccc2)N3)C1 (stereo not drawn) | active: 6.51 µM | –
O=C(NCC(c1ccco1)N1CCN(c2ccccc2)CC1)C(=O)NC1CCCC1 (stereo not drawn) | inconclusive [inhibitor, single point] | –
O=C(COc1ccccc1)NNc1c2ccccc2nc2ccccc12 | inconclusive [inhibitor, single point] | –
Cc1ccc(NC(=O)COC(=O)Cc2ccsc2)c(C)c1 | inactive | –
CCCN(Cc1nc2cc(Cl)ccc2c(=O)[nH]1)C(=O)c1ccc(S(=O)(=O)N2CCCC2)cc1 | inconclusive [inhibitor, single point] | –
CCOCC(=O)Nc1cc(C(F)(F)F)ccc1Oc1cccc(Br)c1 | inactive | –
CC(NC(=O)C(=O)Nc1c2c(nn1-c1ccccc1)CSC2)c1ccccc1 (stereo not drawn) | active: 14.6 µM | –
O=C(Cn1ncc(Cl)c(Cl)c1=O)NCC1CCCCC1 | active: 2.59 µM | –
CN(c1ccc(OCC(=O)N2CCCC2)cc1)S(=O)(=O)c1ccc(Cl)cc1 | inconclusive [inhibitor, single point] | –
O=C(NC1=NCCS1)C1COc2ccccc2O1 (stereo not drawn) | inactive | –
COc1ccccc1CNC(=O)CN(C)CC(=O)Nc1ccccc1Br | inconclusive [inhibitor, partial curve] | –
O=C(NC(Cc1ccccc1)C(=O)N1CCc2ccccc2C1)c1ccccc1 (stereo not drawn) | inconclusive [inhibitor, single point] | –
COc1ccc(N2Cc3ccccc3C2=NC(=O)c2cccc([N+](=O)[O-])c2)cc1 | inconclusive [inhibitor, partial curve] | –
COc1ccc(N=Nc2nc3cc(Br)c(Br)cc3n2C)c(OC)c1 | inconclusive [inhibitor, single point] | –
CC1=C(C(=O)N(C(C)C)C(C)C)CC(CC(=O)NCc2ccco2)C(=O)N1CCC1=CCCCC1 (stereo not drawn) | inconclusive [inhibitor, single point] | –
CC(C)=CCC/C(C)=C/CNC(=O)C[C@H]1C[C@H](C(=O)N2CCOCC2)[C@@]2(C)c3[nH]c4ccc(Cl)cc4c3CCN2C1=O | active: 23.1 µM | –
Cc1cc(Cl)cc(Cl)c1OCCOCCN(C)C | inconclusive [inhibitor, single point] | –
Cc1ccc(CNC(=O)[C@H]2O[C@@H](n3ccc(N)nc3=O)[C@H](O)[C@@H]2O)o1 | inactive | –

Structure (SMILES) | Potency | activity change, negative = growth inhibition
Cc1occc1C(=O)Nc1cccc(C(F)(F)F)c1 | – | inconclusive: -32.5% [inhibitor]
COc1ccc(CN2C[C@@H](CO)O[C@@H](n3cnc4c(NCc5ccc(F)cc5)ncnc43)C2)cc1 | inconclusive [inhibitor, single point] | –
CCN1CCc2c(sc3c2c(NCc2ccco2)nc2nnnn23)C1 | inconclusive [inhibitor, single point] | –
O=C(CN1CCN(Cc2ccc(F)cc2Cl)C1=O)NCCCN1CCOCC1 | inactive | –
COc1ccccc1-c1sc2ccccc2c1-c1ccc(Br)nc1 | inconclusive [inhibitor, single point] | –
N#C/C(=C/c1ccc(F)cc1)c1nnc(NC(=O)c2ccccc2)s1 | inconclusive [inhibitor, single point] | –
CC(C)C[C@H](NC(=O)c1nc[nH]c1C(=O)NCC(=O)OCc1ccccc1)C(=O)OC(C)(C)C | inconclusive [inhibitor, single point] | –
S=C(NCc1ccco1)N1CCN(C(c2ccccc2)c2ccccc2)CC1 | inconclusive [inhibitor, partial curve] | –
CN(C)c1ccc(/C=C2\c3ccccc3C(=O)N2c2ccccc2)cn1 | active: 9.2 µM | –
Cc1nnc(N2CCN(c3ccccc3F)CC2)c2c1nnn2Cc1ccccc1Cl | active: 14.6 µM | –
COc1ccc(C=Nc2cccc3ncccc23)cc1 | inactive | –
COCc1nnc(NC(=O)c2ccc(S(=O)(=O)N(C)c3ccccc3)cc2)o1 | active: 16.4 µM | –
Cc1ccc(NC(=O)/C=C/c2ccco2)cc1S(=O)(=O)N1CCCCCC1 | active: 20.6 µM | –
O=C(C[C@H]1CC[C@@H]2[C@H](COC[C@H](O)CN2Cc2cccc(F)c2)O1)NCc1cccc(F)c1 | inconclusive [inhibitor, single point] | –
Cc1ccc(SCCC(=O)OC(C(=O)NC(N)=O)C(C)C)cc1 (stereo not drawn) | active: 16.4 µM | –
COc1ccc(N2CCN(CC(O)COc3ccc(C(C)C)c(C)c3)CC2)cc1 (stereo not drawn) | inconclusive [inhibitor, single point] | –
NC(=O)c1ccc(NC(=O)COC(=O)c2cc3c(s2)CCC3)cc1 | inconclusive [inhibitor, single point] | –
COc1ccc(NC(=O)c2cc(-c3cc(F)ccc3OC)n[nH]2)c(C)c1 | inconclusive [inhibitor, single point] | –
O=C(Nc1ccc(Cl)c(Cl)c1)C1CCN(C(=O)c2ccco2)CC1 | active: 16.4 µM | –
COc1ccc2nc3oc(C(=O)N(C)c4ccc(Cl)cc4)cc3cc2c1 | inactive | –
Cc1ccc(C)c(N=C2CCCN2Cc2ccccc2)c1C#N | inconclusive [inhibitor, single point] | –
O=C(c1[nH]c(C(F)(F)F)nc1-c1ccccc1)N1CCN(c2ncccc2C(F)(F)F)CC1 | inconclusive [inhibitor, single point] | –
COC(=O)c1cccc(CC2(C)C(=O)Nc3ccc(OC(F)(F)F)cc32)c1 (stereo not drawn) | inconclusive [inhibitor, single point] | –
N#C/C(=N\Nc1ccc([N+](=O)[O-])cc1)C(N)=S | inconclusive [inhibitor, single point] | –
COc1ccc(C2=NOC(C3(S(=O)(=O)c4ccccc4)CC(O)C3)C2)cc1 (stereo not drawn) | inactive | –

Structure (SMILES) | Potency | activity change, negative = growth inhibition
CC(C)C1=CC2=CC[C@@H]3[C@](C)(CO)CCC[C@]3(C)C2CC1 (stereo partly drawn) | inconclusive [inhibitor, single point] | –
c1cncc(-c2ccc3[nH]ccc3c2)c1 | inconclusive [inhibitor, single point] | –
N#Cc1ccccc1-c1ccc2ncnc(NCc3ccccc3)c2c1 | inconclusive [inhibitor, single point] | –
O=C(NCC1CCCO1)c1ccccc1 (stereo not drawn) | inactive | –
CC(=O)c1ccc(N(CC(=O)NC2CCCC2)C(=O)CCC(=O)Nc2cc(C)on2)cc1 | inactive | –
COc1ccc(Oc2ncnc3c2ncn3Cc2ccccc2)cc1 | inactive | –
O=C(COC(=O)c1ccccc1C(=O)N1CCN(c2ccccc2)CC1)Nc1ccccc1 | inconclusive [inhibitor, single point] | –
Cc1nc2cc(N3CCN(C)CC3)c(NC(=O)Cc3ccccc3)cc2c(=O)n1Cc1ccccc1 | inconclusive [inhibitor, single point] | –
CC(C)C[C@H]1CN(CCCC[C@H]2CNC(=O)C(=O)N2CCc2ccc(O)cc2)C(=O)C(=O)N1CCC1CCCCC1 | inactive | –
Cc1ccccc1S(=O)(=O)N1C[C@H]2CON(C)[C@H]2C[C@H]1c1cccc(-c2ccccc2)c1 | inconclusive [inhibitor, single point] | –
S=C(Nc1ccccc1)c1nc2ccccc2s1 | inconclusive [inhibitor, single point] | –
Cc1nc(C)c2c(=O)cc(-c3ccccc3)[nH]c2n1 | active: 4.47 µM | –
Cc1ccnc(NC(=O)c2c(C)oc3ncn(CC(C)C)c(=O)c23)c1 | inconclusive [inhibitor, partial curve] | –
COc1cc(C(=O)NN=Cc2ccc(N(C)C)cc2)cc(OC)c1OC | active: 0.92 µM | –
O=C(NCCCN1CCN(c2ccccc2F)CC1)c1cc2c(Cl)nc3ccccc3c2s1 | active: 16.4 µM | –
Cc1cccc([C@H](NC(=O)OC(C)(C)C)C(=O)OC(C)(C)C)c1 | inconclusive [inhibitor, partial curve] | –
CNCCOc1ccc(Cl)c(Cl)c1 | inconclusive [inhibitor, single point] | –
CC(C)(C(=O)NO)c1ccccc1 | inactive | –
COC(=O)C(C(=O)OC)C1CCCCC1NS(=O)(=O)c1ccc(C)cc1 (stereo not drawn) | inactive | –
CC1CCN(Cc2nnnn2CCCC(=O)NCCN2CCOCC2)CC1 | inactive | –
Cc1sc2ncnc(N3CCN(S(=O)(=O)c4ccccc4)CC3)c2c1C | active: 8.2 µM | –
Cc1c(C)c2c(OCC(=O)N3CCC(C(=O)O)CC3)cc3c(c2oc1=O)CCC(C)(C)O3 | inactive | –
CCOC(=O)c1c(C)[nH]c(C(=O)COC(=O)c2cc(C)oc2C)c1C | inconclusive [inhibitor, partial curve, poor fit] | –
